Laboratory results from patent US20110152173A1 (EMERGENT PRODUCT DEVELOPMENT SEATTLE, published 2011).

Tests used:
[1] = target: T1, human TWEAK (human, UniProt O43508 93-249, limits assumed); test: ELISA: plate-coated ligand, Xceptor detected with HRP anti-human IgG-Fc
T1 sequence (looked up): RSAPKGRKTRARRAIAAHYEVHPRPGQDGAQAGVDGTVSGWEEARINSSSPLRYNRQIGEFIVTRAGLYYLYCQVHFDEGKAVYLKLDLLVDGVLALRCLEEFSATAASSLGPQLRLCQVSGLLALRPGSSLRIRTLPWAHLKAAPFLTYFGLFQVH
Method: (§1) Mouse and human ligands (R&D Systems, Minnesota, MN) were added to wells of a 96-well plate at a concentration of 1 μg/ml in PBS (100 μl/well). Plates were incubated at 4° C. overnight. After washing five times with PBS-T, 250 μl Blocking Buffer (PBS-T with 3% BSA) was added to each well, and the plate covered and incubated at room temperature (RT) for 2 hours. Serial three fold dilutions of xceptors were made in Working Buffer (PBS-T with 1% BSA) starting at 300 ng/ml. As a negative control, an irrelevant xceptor was used. The plate was incubated at RT for 1 hour. After washing five times with PBS-T, 100 μl per well of HRP-conjugated anti-human IgG-Fc (1:5000 in Working buffer) was added, the plate covered, and incubated at RT for 1 hour. After washing five times with PBS-T, 100 µl of Quant-Blu substrate (Pierce, Rockford, Ill.) was added to each well. The plate was incubated at RT for 10-30 minutes, and fluorescence measured at 325/420 nm.

[2] = target: T2, mouse TWEAK (mouse, UniProt O54907 105-249, limits assumed); test: as above
T2 sequence (looked up): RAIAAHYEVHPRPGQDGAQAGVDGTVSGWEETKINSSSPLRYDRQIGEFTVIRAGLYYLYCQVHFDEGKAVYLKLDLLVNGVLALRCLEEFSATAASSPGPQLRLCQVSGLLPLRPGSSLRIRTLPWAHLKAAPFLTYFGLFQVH
Method: as §1

binding result [1]: binds
binding result [2]: binds
B1: Xceptor comprising a TNFRSF1B ectodomain and a TWEAKR ectodomain (Fc fusion)
chain: LPAQVAFTPYAPEPGSTCRLREYYDQTAQMCCSKCSPGQHAKVFCTKTSDTVCDSCEDSTYTQLWNWVPECLSCGSRCSSDQVETQACTREQNRICTCRPGWYCALSKQEGCRLCAPLRKCRPGFGVARPGTETSDVVCKPCAPGTFSNTTSSTDICRPHQICNVVAIPGNASMDAVCTSTSPTRSMAPGAVHLPQPVSTRSQHTQPTPEPSTAPSTSFLLPMGPSPPAEGSTGDTGEPKSSDKTHTCPPCPAPEAAGAPSVFLFPPKPKDTLMISRTPEVTCVVVDVSHEDPEVKFNWYVDGVEVHNAKTKPREEQYNSTYRVVSVLTVLHQDWLNGKAYACAVSNKALPAPIEKTISKAKGQPREPQVYTLPPSRDELTKNQVSLTCLVKGFYPSDIAVEWESNGQPENNYKTTPPVLDSDGSFFLYSKLTVDKSRWQQGNVFSCSVMHEALHNHYTQKSLSLSPGQRHNNSSLNTGTQMAGHSPNS[left out - about 60 residues]
notes: also called TNFR × TWEAKR
